Reference: paper PMC7016264, “Redox requirements for ubiquitin-like urmylation of Ahp1, a 2-Cys peroxiredoxin from yeast” (Redox Biology, 2020)
Where a chain is given by its changes, count along the chain named. Names and notes keep the numbering of the source. No constants are given. Whether binding was seen depends on the method and setting. Some binding calls cover weakened binding; strength is not graded here. For some assays here: Sequences can lack the tags named with a protein. Each block holds one binder with its values, some of them ahead of it.

How the values were obtained:
[1] = target: Ahp1 (untagged, in yeast cell extract) (S. cerevisiae (endogenous in yeast)) (UniProt P38013); test: non-reducing SDS-PAGE with anti-Ahp1 Western blot (intersubunit disulfides); yeast lysates made with 10 mM NEM; sample buffer without beta-mercaptoethanol; disulfide-linked Ahp1 dimer (AID) detected by anti-Ahp1 serum; also in trx1, trx2, trr1 deletion strains and after t-BOOH (0.3-10 mM, 5 min)
[2] = target: Ahp1 C120S (expressed in yeast) (S. cerevisiae) (UniProt P38013); test: as above
[3] = target: T1, His-tagged Ahp1 F58,95A (recombinant) (S. cerevisiae), P38013; test: SEC-MALS; proteins reduced with 50 mM DTT, exchanged into 20 mM HEPES pH 7.5, 100 mM NaCl, 1 mM TCEP, diluted to 125 uM; dimer to monomers; both purified; details: remark: other sources report otherwise
T1 chain: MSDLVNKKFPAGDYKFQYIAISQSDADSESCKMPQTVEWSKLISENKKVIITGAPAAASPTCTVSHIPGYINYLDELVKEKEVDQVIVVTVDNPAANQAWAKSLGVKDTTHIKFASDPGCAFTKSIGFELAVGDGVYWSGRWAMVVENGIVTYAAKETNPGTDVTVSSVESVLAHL

[4] = target: T2, His-tagged Ahp1 F58A (recombinant) (S. cerevisiae), P38013; test: as above; details: remark: other sources report otherwise
T2 chain: T1 chain with A95F

[5] = target: c-Myc tagged Ahp1 (in yeast cell extract) (S. cerevisiae) (UniProt P38013); test: non-reducing SDS-PAGE with anti-Ahp1 Western blot (intersubunit disulfides); yeast lysates made with 10 mM NEM; sample buffer without beta-mercaptoethanol; disulfide-linked Ahp1 dimer (AID) detected by anti-Ahp1 serum; also in trx1, trx2, trr1 deletion strains and after t-BOOH (0.3-10 mM, 5 min)

B1: Ahp1 (untagged, in yeast cell extract) (enzyme, UniProt P38013 1-176)
chain: T1 chain with A58F, A95F
modifications: intersubunit disulfides between Cys-31 and Cys-62 (oxidized dimer)
binding [1]: binds

B2: Ahp1 C120S (expressed in yeast) (enzyme, UniProt P38013 1-176)
chain: T1 chain with A58F, A95F, C120S
modifications: intersubunit disulfides (oxidized dimer)
binding [2]: binds

B3: His-tagged Ahp1 F58,95A (recombinant), P38013 1-176 (enzyme)
chain: T1 chain
binding [3]: no binding (tested: 125 uM)

Next, values leading:

binding [4]: no binding (tested: 125 uM)
B4: His-tagged Ahp1 F58A (recombinant), P38013 1-176 (enzyme)
chain: T1 chain with A95F

binding [5]: binds
B5: c-Myc tagged Ahp1 (in yeast cell extract) (enzyme, UniProt P38013 1-176)
chain: T1 chain with A58F, A95F
modifications: intersubunit disulfides (oxidized dimer)
